# The full ranking holds about 33,000 sequences; the median of “E-score (-0.5 to 0.5)” is about -0.012, and the highest 2% start at about 0.27. The list shows a part of the results.
# Biological target: T1, Vhr1 (UniProt P40522)
# T1 sequence: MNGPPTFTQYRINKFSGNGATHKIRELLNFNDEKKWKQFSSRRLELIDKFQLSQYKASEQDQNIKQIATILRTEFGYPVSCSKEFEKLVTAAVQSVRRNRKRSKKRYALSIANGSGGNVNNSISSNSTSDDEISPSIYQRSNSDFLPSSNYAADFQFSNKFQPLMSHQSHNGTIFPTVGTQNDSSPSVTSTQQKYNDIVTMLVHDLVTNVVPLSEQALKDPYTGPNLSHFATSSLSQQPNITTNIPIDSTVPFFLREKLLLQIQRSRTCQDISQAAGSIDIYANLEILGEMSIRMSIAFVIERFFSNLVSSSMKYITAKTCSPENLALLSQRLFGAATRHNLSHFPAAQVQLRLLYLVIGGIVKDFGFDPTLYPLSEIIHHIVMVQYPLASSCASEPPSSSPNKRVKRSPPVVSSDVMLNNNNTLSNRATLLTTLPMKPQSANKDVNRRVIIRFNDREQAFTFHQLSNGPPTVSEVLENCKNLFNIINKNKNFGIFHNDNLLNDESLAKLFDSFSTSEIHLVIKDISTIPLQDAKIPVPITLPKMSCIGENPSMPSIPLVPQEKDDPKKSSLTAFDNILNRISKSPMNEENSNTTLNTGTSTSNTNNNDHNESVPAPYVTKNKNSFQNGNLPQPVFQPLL
# Test: PBM E-score (8-mer binding enrichment) (E-score (-0.5 to 0.5)); higher = stronger / more preferred TF binding; most listed sequences are background and not binding sites
# Details: protein concentration: 200 nM; construct: GST-full length
# Description: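 Universal 'all 10-mer' protein binding microarrays (Agilent AMADID 015681) probed with GST-tagged S. cerevisiae TFs (full-length or DBD) made by in vitro transcription/translation (PURExpress), about 100-200 nM. Bound TF was detected with fluorescent anti-GST. Each ungapped 8-mer (which stands for itself and its reverse complement) is scored by the PBM enrichment score (E-score), a modified Wilcoxon-Mann-Whitney statistic from -0.5 to +0.5, computed with the Universal PBM Analysis Suite. Scale: above 0.35 generally sequence-specific binding.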
row,Sequence,PBM E-score
1,CCGCGATC,0.135
2,ATTTAAAT,-0.00436
3,GGATTGCC,-0.157
4,ATGACTCG,0.457
5,ACACGAGC,0.0373
6,ACAATCCA,0.123
7,AACTTAGC,-0.266
8,AGATAAAG,-0.122
9,CATTCGCG,0.279
10,CGACGGGC,0.133
11,CTAACGGC,-0.0696
12,CAAGCATG,0.0615
13,CAATTCAA,-0.0723
14,ACCTTAAT,-0.0922
15,AATCGGGC,-0.0767
16,AGTGACGG,0.00494
17,ACTTTGCC,-0.0785
18,AGAGAAAA,-0.184
19,ATTGGACG,-0.3
20,GTATATAA,0.173
21,GTCAGTGA,0.231
22,TCCGATCA,0.0717
23,ACATATAT,0.185
24,ACGACGGC,-0.0346
25,CACTACGG,0.0045

row,Sequence,PBM E-score
1,AGTGTTTA,0.0268
2,CAGCTGCC,-0.16
3,AGCCAAGA,-0.0975
4,CCCTTTGC,0.0471
5,ATTTCGGC,0.0568
6,AGCGGACA,-0.0639
7,ACATAAAC,0.0679
8,AATAAACC,0.119
9,ATTAACGC,-0.0525
10,TCGCCAGA,0.0899
11,AGACAGCA,-0.0562
12,CATACTCG,0.18
13,ACCGAAAG,-0.215
14,AAGTGTTA,-0.166
15,TACTACAA,0.132
16,ACGTGATA,-0.2
17,AAAAAAGA,-0.112
18,CTACTCGA,0.0342
19,TCACCGAA,0.155
20,AATTAGCA,-0.0883
21,CTAGTACC,-0.0145
22,GTAGGATA,-0.0158
23,ACGAGAAG,-0.192
24,AATCCACG,-0.16
25,ATGAAGTC,-0.042

row,Sequence,PBM E-score
1,TAAGCATA,0.00077
2,CAGTCCAA,0.0262
3,ACACGAGA,0.138
4,ATGGGCCA,-0.126
5,AATATAAC,0.0204
6,AAATGGTT,0.0383
7,CGCCCGAC,0.342
8,ATAAGCAG,-0.0155
9,ACCCGGGC,0.126
10,CGTACGGA,0.0927
11,ACTATACC,0.209
12,CCTAGAGG,-0.177
13,GTTGACCA,-0.0493
14,AAGTTACT,0.121
15,TGTTCTAA,-0.0387
16,AACGGGAC,-0.178
17,CACCCCGA,0.236
18,GCACGTCC,-0.0222
19,ATCCTCGC,0.0808
20,CGCGCGCA,0.259
21,GGTGTCTA,0.166
22,AGGGTAGC,-0.121
23,GGGTGAAA,-0.0775
24,AGATTAAG,-0.0357
25,AGTCGACG,0.278

row,Sequence,PBM E-score
1,ATTAACTC,0.139
2,GCCGTGAA,0.0374
3,TGGCGCAA,-0.119
4,AGAGCACC,-0.149
5,TCAATACA,0.147
6,AATGAAAG,-0.125
7,AAGAGTCA,0.422
8,AGCGAGTG,0.192
9,GTGTGCTA,0.165
10,ATAACACC,0.21
11,CATGCGTC,0.148
12,ATATCTCG,-0.224
13,AGCCGAGC,-0.0786
14,GAGCGAAC,-0.0181
15,CGGTATGA,0.174
16,GAGCGTCA,-0.155
17,CAAAAAAA,-0.0604
18,CATCAGCG,0.0603
19,TATATGGA,0.175
20,ACGTGTTC,-0.219
21,TACGCTAA,-0.011
22,AGTTCCAC,-0.0718
23,ATCCAAAC,0.132
24,CGGCGCGC,0.223
25,AACCAGCC,0.0858

row,Sequence,PBM E-score
1,AGATTCAC,0.097
2,CCAAGTGG,-0.0343
3,GTATTGCA,-0.136
4,TATATTCA,0.0779
5,TCTGTGAA,-0.077
6,CCCGATAA,0.00419
7,CAGTTATA,0.113
8,TAGTACCA,0.0581
9,CGCTCGGA,0.00307
10,AACCCCTC,-0.0573
11,CCGTAGAC,-0.157
12,ACCTTCCT,-0.183
13,CAATAACG,-0.137
14,CCCTCTAA,-0.231
15,CAACTCGC,0.163
16,ATAGCGAA,-0.0348
17,GTCACAGA,0.157
18,CACGTACG,-0.124
19,TGAGAGAA,-0.119
20,AGACGGTC,-0.166
21,CTTATTTA,-0.201
22,TAGGCCGA,-0.262
23,CTGTTTTA,-0.137
24,CAACATGC,0.15
25,CGAGTGGA,-0.0131

row,Sequence,PBM E-score
1,AAAAGGTC,-0.25
2,GCACCGGA,-0.0806
3,CCAATACC,-0.00651
4,CGTCCGTA,-0.0033
5,ACCTAGAT,0.0853
6,CTTGTCCA,-0.231
7,CAACAATC,0.273
8,GGTCCGAA,0.0081
9,ACACCAAC,0.177
10,GCGGAACC,0.107
11,ACGCTACA,0.0548
12,TCACAGGA,0.103
13,CCATCTTC,0.0786
14,TACATATA,0.264
15,AGACTAGA,-0.19
16,TGTTGTAA,0.0861
17,GTTTGTTA,0.00053
18,AAACTGCG,-0.124
19,ATGCGCGG,0.0156
20,ATTGATCG,-7e-05
21,ATGGCAGA,0.127
22,ATGATGCG,0.0549
23,CCCGAGTC,0.387
24,CCGCGCCG,-0.0381
25,CAACGTGA,0.0552

row,Sequence,PBM E-score
1,CACACCAC,0.256
2,AATCCTTC,-0.285
3,TACGTTCA,-0.115
4,AGGGGGGC,-0.162
5,AACTAGCC,-0.148
6,GAAGCGGC,-0.175
7,GACGTGAA,-0.067
8,ACAGCAAG,0.115
9,ACGGCCCC,-0.111
10,CTAGTCGC,0.0967
11,CAGGAACA,-0.0074
12,CTAGACAA,-0.104
13,CCTTGCCC,0.0376
14,AGCCAAGG,0.105
15,AAAACTTA,-0.0653
16,ATAACTTG,0.184
17,TCCGTCAA,-0.128
18,ATTTACAA,-0.101
19,AATTTCAG,-0.0667
20,AATAACCG,-0.0637
21,GACCGCTA,-0.218
22,TAACATAA,0.183
